Source: article PMC12820563
The other results are listed elsewhere or left out. The list includes weakly bound sequences.

Each sequence was assayed against T1, MBP-FoxP3dN (UniProt Q99JB6) (assay: PD-seq (MBP pull-down with sequencing)). Details: 20 mM Tris-HCl pH 7.5, 100 mM NaCl, 1.5 mM MgCl2, 0.4 uM protein, 0.1 uM dsDNA library, 30 min, room temperature, amylose pull-down; high values mean tight binding; double strand, one strand shown.
T1 sequence: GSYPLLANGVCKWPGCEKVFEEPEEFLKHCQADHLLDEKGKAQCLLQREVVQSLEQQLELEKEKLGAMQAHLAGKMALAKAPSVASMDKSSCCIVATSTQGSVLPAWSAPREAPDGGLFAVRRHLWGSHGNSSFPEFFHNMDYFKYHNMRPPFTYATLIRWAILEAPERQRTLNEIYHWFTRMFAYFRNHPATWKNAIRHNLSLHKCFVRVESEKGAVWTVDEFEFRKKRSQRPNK

Row | Sequence | binding signal (RPM ratio (pull-down/input))
1 | GATGATTGTTCTCCCAGCTGATGAATTATGCTGATCGAGTAAACAAATTTTCCTAATCTTTCTGTTCAAGCGCCATCTAC | 2.01
2 | GATGATTGTTCTCCCAGCTGATGAATTAAGGACATCGAGTAAACAAATTTTCCTAATCTTTCTGTTCAAGCGCCATCTAC | 0.425
3 | GATGATTGTTCTCCCAGCTGATGAATTGTGCTCCTCGAGTAAACAAATTTTCCTAATCTTTCTGTTCAAGCGCCATCTAC | 1.3
4 | GATGATTGTTCTCCCAGCTGATGAATTTGGTTTTTCGAGTAAACAAATTTTCCTAATCTTTCTGTTCAAGCGCCATCTAC | 2.25
5 | GATGATTGTTCTCCCAGCTGATGAATTTGGAATATCGAGTAAACAAATTTTCCTAATCTTTCTGTTCAAGCGCCATCTAC | 0.536
6 | GATGATTGTTCTCCCAGCTGATGAATTGTGTAGATCGAGTAAACAAATTTTCCTAATCTTTCTGTTCAAGCGCCATCTAC | 2.16
7 | GATGATTGTTCTCCCAGCTGATGAATTTAGGGTGTCGAGTAAACAAATTTTCCTAATCTTTCTGTTCAAGCGCCATCTAC | 1.23
8 | GATGATTGTTCTCCCAGCTGATGAATTAATACTGTCGAGTAAACAAATTTTCCTAATCTTTCTGTTCAAGCGCCATCTAC | 0.475
9 | GATGATTGTTCTCCCAGCTGATGAATTGTTGCCTTCGAGTAAACAAATTTTCCTAATCTTTCTGTTCAAGCGCCATCTAC | 4.01
10 | GATGATTGTTCTCCCAGCTGATGAATTAGTGGATTCGAGTAAACAAATTTTCCTAATCTTTCTGTTCAAGCGCCATCTAC | 0.984
11 | GATGATTGTTCTCCCAGCTGATGAATTTGTCTTGTCGAGTAAACAAATTTTCCTAATCTTTCTGTTCAAGCGCCATCTAC | 4.08
12 | GATGATTGTTCTCCCAGCTGATGAATTCTGAGCATCGAGTAAACAAATTTTCCTAATCTTTCTGTTCAAGCGCCATCTAC | 0.756
13 | GATGATTGTTCTCCCAGCTGATGAATTAATAAATTCGAGTAAACAAATTTTCCTAATCTTTCTGTTCAAGCGCCATCTAC | 0.343
14 | GATGATTGTTCTCCCAGCTGATGAATTCACTTGATCGAGTAAACAAATTTTCCTAATCTTTCTGTTCAAGCGCCATCTAC | 0.317
15 | GATGATTGTTCTCCCAGCTGATGAATTCCTCACCTCGAGTAAACAAATTTTCCTAATCTTTCTGTTCAAGCGCCATCTAC | 0.251
16 | GATGATTGTTCTCCCAGCTGATGAATTTCAAATGTCGAGTAAACAAATTTTCCTAATCTTTCTGTTCAAGCGCCATCTAC | 0.275

Row | Sequence | binding signal (RPM ratio (pull-down/input))
17 | GATGATTGTTCTCCCAGCTGATGAATTAAGTGGGTCGAGTAAACAAATTTTCCTAATCTTTCTGTTCAAGCGCCATCTAC | 0.63
18 | GATGATTGTTCTCCCAGCTGATGAATTCCAGATCTCGAGTAAACAAATTTTCCTAATCTTTCTGTTCAAGCGCCATCTAC | 0.24
19 | GATGATTGTTCTCCCAGCTGATGAATTCCAGTCCTCGAGTAAACAAATTTTCCTAATCTTTCTGTTCAAGCGCCATCTAC | 0.408
20 | GATGATTGTTCTCCCAGCTGATGAATTTAAAGGGTCGAGTAAACAAATTTTCCTAATCTTTCTGTTCAAGCGCCATCTAC | 0.218
21 | GATGATTGTTCTCCCAGCTGATGAATTTTTCTGATCGAGTAAACAAATTTTCCTAATCTTTCTGTTCAAGCGCCATCTAC | 0.211
22 | GATGATTGTTCTCCCAGCTGATGAATTGTTAAGCTCGAGTAAACAAATTTTCCTAATCTTTCTGTTCAAGCGCCATCTAC | 0.371
23 | GATGATTGTTCTCCCAGCTGATGAATTCAACATTTCGAGTAAACAAATTTTCCTAATCTTTCTGTTCAAGCGCCATCTAC | 0.513
24 | GATGATTGTTCTCCCAGCTGATGAATTTTCAACCTCGAGTAAACAAATTTTCCTAATCTTTCTGTTCAAGCGCCATCTAC | 0.255
25 | GATGATTGTTCTCCCAGCTGATGAATTTCAAACATCGAGTAAACAAATTTTCCTAATCTTTCTGTTCAAGCGCCATCTAC | 0.569
26 | GATGATTGTTCTCCCAGCTGATGAATTTCACAGGTCGAGTAAACAAATTTTCCTAATCTTTCTGTTCAAGCGCCATCTAC | 0.242
27 | GATGATTGTTCTCCCAGCTGATGAATTGAACCTCTCGAGTAAACAAATTTTCCTAATCTTTCTGTTCAAGCGCCATCTAC | 0.351
28 | GATGATTGTTCTCCCAGCTGATGAATTGGCATAGTCGAGTAAACAAATTTTCCTAATCTTTCTGTTCAAGCGCCATCTAC | 0.503
29 | GATGATTGTTCTCCCAGCTGATGAATTAGCTCTCTCGAGTAAACAAATTTTCCTAATCTTTCTGTTCAAGCGCCATCTAC | 0.316
30 | GATGATTGTTCTCCCAGCTGATGAATTGAGTATCTCGAGTAAACAAATTTTCCTAATCTTTCTGTTCAAGCGCCATCTAC | 3.35
31 | GATGATTGTTCTCCCAGCTGATGAATTAGATCAATCGAGTAAACAAATTTTCCTAATCTTTCTGTTCAAGCGCCATCTAC | 0.286
